Experimental data from PMC4336329 (PLoS ONE, 2015).
Hit rate of the full screen: of about 310,000 compounds, about 14,000 (4.5%) showed an effect of 50% or more. Effects have a minus sign here. The list shows a part of the results.

Target: human ether-à-go-go-related gene (hERG) potassium channel (human, UniProt Q12809)
Experiment: primary screen, population patch clamp on CHO cells stably expressing hERG
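Further: peak tail current of the secondary pulse compared with the same well before compound.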

Sequence of human ether-à-go-go-related gene (hERG) potassium channel (Q12809 whole entry, looked up): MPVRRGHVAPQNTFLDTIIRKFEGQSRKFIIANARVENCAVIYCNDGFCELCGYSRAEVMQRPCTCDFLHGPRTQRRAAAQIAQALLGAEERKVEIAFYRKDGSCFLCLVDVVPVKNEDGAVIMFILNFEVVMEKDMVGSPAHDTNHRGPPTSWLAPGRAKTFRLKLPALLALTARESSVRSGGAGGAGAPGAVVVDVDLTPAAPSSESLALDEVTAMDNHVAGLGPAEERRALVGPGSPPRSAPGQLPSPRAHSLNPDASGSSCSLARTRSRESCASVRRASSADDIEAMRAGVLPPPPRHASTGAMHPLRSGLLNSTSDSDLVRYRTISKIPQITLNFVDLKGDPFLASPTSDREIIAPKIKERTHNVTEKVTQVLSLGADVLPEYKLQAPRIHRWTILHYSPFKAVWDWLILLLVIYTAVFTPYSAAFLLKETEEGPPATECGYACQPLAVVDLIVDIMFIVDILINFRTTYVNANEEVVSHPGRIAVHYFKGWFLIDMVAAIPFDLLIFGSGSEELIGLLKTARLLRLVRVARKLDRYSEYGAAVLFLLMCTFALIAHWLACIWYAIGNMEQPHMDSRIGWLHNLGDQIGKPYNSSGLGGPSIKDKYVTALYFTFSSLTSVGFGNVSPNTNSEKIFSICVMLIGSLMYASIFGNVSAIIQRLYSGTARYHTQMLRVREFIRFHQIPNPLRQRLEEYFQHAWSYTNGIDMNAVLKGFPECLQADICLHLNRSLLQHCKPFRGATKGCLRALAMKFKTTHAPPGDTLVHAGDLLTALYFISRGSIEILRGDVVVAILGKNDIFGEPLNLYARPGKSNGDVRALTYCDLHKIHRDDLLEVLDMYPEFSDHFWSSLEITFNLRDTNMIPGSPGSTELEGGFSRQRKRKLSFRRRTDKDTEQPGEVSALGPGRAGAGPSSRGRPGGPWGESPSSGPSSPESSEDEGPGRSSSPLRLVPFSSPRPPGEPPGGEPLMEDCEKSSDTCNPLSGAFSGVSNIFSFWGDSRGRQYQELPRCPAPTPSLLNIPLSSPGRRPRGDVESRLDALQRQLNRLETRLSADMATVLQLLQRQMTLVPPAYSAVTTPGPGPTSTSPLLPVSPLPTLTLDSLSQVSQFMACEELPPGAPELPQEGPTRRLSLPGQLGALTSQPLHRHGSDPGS

| Structure (SMILES) | hERG current change (%, negative = inhibition) at 10uM [%] |
| --- | --- |
| CCCCCCCCCS(=O)(=O)N/N=C/c1cccc([N+](=O)[O-])c1 | 13.9 |
| CC1=C(C(=O)OCC2CCCCC2)C(c2ccccc2F)NC(=O)N1 (stereo not shown) | -0.253 |
| O=C1C=C(c2ccc3c(c2)OCO3)C[C@@H](c2ccc(Cl)cc2)C1 | 5.86 |
| CCC(SC1=N/C(=C/c2ccccc2OC)C(=O)N1c1ccccc1)C(=O)Nc1cc(C)on1 (stereo not shown) | -3.34 |
| O=C(N/N=C/C=C/c1ccccc1[N+](=O)[O-])c1cccs1 | -17.8 |
| Cc1cc(C)c(OCCCNCc2ccccc2)c(Br)c1.O=C(O)C(=O)O | -10.7 |
| COc1ccc(NC(=O)c2nc[nH]c2C(=O)N[C@H](C)c2ccccc2)cc1 | -3.73 |
| CCNc1nc(NCC)n2c(SCC(=O)Nc3cc(Cl)ccc3OC)nnc2n1 | -8.33 |
| CN1CCN(/N=C/c2c3ccccc3c(Cl)c3ccccc23)CC1.Cl | 3.81 |
| NC(=O)Nc1ccccc1C(=O)N1CCC(O)(c2ccc(Cl)cc2)CC1 | -0.977 |
| Cc1onc(-c2ccccc2)c1C(=O)N1CCCC1 | 18.9 |
| COc1cccc(C2/C(=C(/O)c3ccccc3)C(=O)C(=O)N2Cc2ccco2)c1 (stereo not shown) | 16.4 |
| Fc1nc(F)c(F)c(NCCCNc2c(F)c(F)nc(F)c2F)c1F | -6.81 |
| Cc1ccc(-n2c(O)cnc2Nc2nc(C)cc(C)n2)cc1 | -8.21 |
| CCOC(CNC(=O)c1cc(C)nn1-c1ccccc1)OCC | -10.1 |
| O=C(Nc1sc2c(c1C(=O)O)CCCC2)c1cccs1 | 16.7 |
| CCc1ccc(NC(=S)N2CCCC(C(F)(F)F)C2)cc1 (stereo not shown) | 8.05 |
| COc1cc(CC(NC(C)=O)C(=O)NC2CCN(C(=O)Nc3ccccc3Cl)CC2)cc(OC)c1 (stereo not shown) | 33.4 |
| CC(C)(C)CNc1cc(N2CCCC2)ccc1[N+](=O)[O-] | -1.39 |
| CCOC(=O)C1(Cc2ccccc2C)CCCN(C(=O)CSC)C1 (stereo not shown) | 8.57 |
| Cc1cc(C)cc(NS(=O)(=O)c2cccs2)c1 | -0.0983 |
| CC(C)CC1NC(=O)N(CC(=O)Nc2ccc3c(c2)OCCO3)C1=O (stereo not shown) | 6.18 |
| Cc1ccccc1CC(=O)NC1CCN(Cc2ccccc2)CC1 | 1.87 |
| CCc1cc2c(=O)n(Cc3ccco3)c(SCC(=O)NC3CCS(=O)(=O)C3)nc2s1 (stereo not shown) | -72.2 |
| Cc1ccc(N2C(=O)S/C(=C/c3cn(C)c4ccccc34)C2=O)cc1 | 8.89 |
| O=C(NC(=S)Nc1cccc(O)c1)c1ccco1 | 10.1 |
| Cl.c1csc(COc2ccccc2CNC2CCCCC2)c1 | -37.5 |
| Cc1ccc(-c2cc(-c3ccccc3O)nc(N/N=C/c3cccnc3)n2)cc1 | 7.52 |

| Structure (SMILES) | hERG current change (%, negative = inhibition) at 10uM [%] |
| --- | --- |
| COc1cc(CN2CCCC(C(=O)c3ccc(C(C)(C)C)cc3)C2)cc(OC)c1O (stereo not shown) | -47.3 |
| Cc1cccc(N=Nc2c(O)[nH]c3ccc(F)cc23)c1 | 14.3 |
| Cn1ccnc1C1CCCCN1Cc1nc(-c2ccc(Cl)cc2)no1 (stereo not shown) | -23.1 |
| O=C1COc2ccc(S(=O)(=O)NCc3ccc(Cl)cc3)cc2N1 | -3.47 |
| COc1ccccc1C(=O)NC(=O)COC(=O)c1ncc(Cl)c(Cl)c1Cl | 3.55 |
| COC(=O)c1ccccc1-c1ccc(/C=N/NC(N)=O)o1 | -20.8 |
| CCOc1cccc(-c2cc(C(=O)N3N=C(C)CC3(O)C(F)F)c3ccccc3n2)c1 (stereo not shown) | -13.6 |
| COC(=O)c1ccc2nc(-c3ccc4c(c3)OCO4)cn2c1 | 17.3 |
| O=C(NCC1CCCCC1)c1cccc(S(=O)(=O)NCc2cccnc2)c1 | -0.696 |
| CC1CC(C)CN(C(=O)COC(=O)CNC(=O)C23CC4CC(CC(C4)C2)C3)C1 (stereo not shown) | 7.91 |
| O=C(CCS(=O)(=O)c1cccc2nsnc12)N1CCN(C(=O)c2ccco2)CC1 | 3.26 |
| CC1CCCCC12NC(=O)N(Cn1nnc3ccccc3c1=O)C2=O (stereo not shown) | -17.2 |
| CCOc1ccc(NC(=O)CNC(=O)c2nn(-c3ccc(OC)c(OC)c3)c(=O)c3ccccc23)cc1 | 19.9 |
| CC(CN(C)Cc1ccccc1)OC(=O)c1cccc(F)c1.Cl (stereo not shown) | 1.12 |
| Cc1cc(C(=O)O)ccc1-c1ccc(/C=C2\NC(=O)N(Cc3ccc(F)cc3)C2=O)o1 | 15.4 |
| COc1ccc(C(=O)/C=C/C(=O)N(Cc2ccccc2)C(C(=O)NC2CCCCC2)c2ccncc2)c(O)c1 (stereo not shown) | -19.3 |
| CC(C)(C)C(=O)Nc1sc2c(c1-c1nc3ccccc3[nH]1)CCCC2 | 3.05 |
| Cc1ccc(N=Nc2c(C)[nH]n(-c3ccccc3)c2=O)c(C)c1 | 22 |
| O=C(COc1ccc(Cl)cc1Cl)N(Cc1ccco1)C1CCS(=O)(=O)C1 (stereo not shown) | -25.9 |
| CN(C)CCCN1c2ccccc2Sc2ccccc21.Cl | -28.1 |
| CC(=O)Oc1ccc2c(c1)OC(c1ccccc1)CC21CC(C)(C)NC(=S)N1 (stereo not shown) | -12.8 |
| Cc1ccc(N2C(=O)CC(Sc3ncccc3C(=O)O)C2=O)cc1 (stereo not shown) | 10.6 |
| O=C(NCCO)c1nc(C(=O)c2ccccc2)c2ccccc2n1 | 15.9 |
| Cc1cc(C(=O)NNC(=O)/C=C/c2ccc(F)cc2)c(C)o1 | 1.41 |
| N#Cc1ccc(C(=O)NCC(c2ccco2)N2CCCCC2)cc1 (stereo not shown) | -47.9 |
| CCOC(=O)c1c(C)[nH]c(C(=O)COC(=O)C23CC4CC(CC(Cl)(C4)C2)C3)c1C | 11.6 |
| Cc1ccccc1NC(=O)c1cccc(N2C(=O)C3CCCCC3C2=O)c1 (stereo not shown) | 11.4 |
